# Measured values reported in patent publication US20160008427A1 (Genentech, published 2016).
# B1: wild-type CRIg, mouse IgG1 Fc fusion protein (Fc fusion)
# chain: [about 120 residues not shown]HSSKLLKTKTEAPTTMTYPLKATSTVKQSWDWTTDMDGYLGETSAGPGKSLP
# notes: also called CRIg wt; hCRIg-mIgG1; not shown: mouse IgG1 Fc (mIgG1; captured by anti-muFc)
# B2: CRIg Q64R M86Y, mouse IgG1 Fc fusion protein (Fc fusion)
# chain: [about 120 residues with changes not shown]HSSKLLKTKTEAPTTMTYPLKATSTVKQSWDWTTDMDGYLGETSAGPGKSLP
# notes: also called Q64R/M86Y mutant; hCRIg-RL41-mIgG1; not shown: mouse IgG1 Fc (mIgG1; captured by anti-muFc)
# B3: CRIg Q64R M86Y (purified variant protein used in the competitive ELISA, AlphaScreen and complement assays) (receptor, not shown: a dimerising Fc or GST)
# chain: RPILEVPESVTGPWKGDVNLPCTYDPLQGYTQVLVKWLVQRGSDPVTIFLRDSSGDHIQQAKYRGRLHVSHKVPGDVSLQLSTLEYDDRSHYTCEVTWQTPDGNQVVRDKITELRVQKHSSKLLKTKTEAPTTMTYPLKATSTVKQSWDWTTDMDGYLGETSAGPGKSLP
# notes: also called RL41; CRIg-ECD protein with combined amino acid substitutions Q64R and M86Y
# Key:
# C3b [1] = molecular target: T1, C3b (human, UniProt P01024 23-667; P01024 part only); assay: SPR (Biacore A100), CRIg fusion captured by anti-muFc, C3b injected, steady state analysis
# T1 construct: also called soluble C3b; human C3b
# Procedure: (§1) Affinities of C3b for mutant and wild-type CRIg were determined by using surface plasmon resonance measurements on a Biacore® A100 instrument (GE healthcare). An anti-Fc capture format was employed and the KD was calculated from equilibrium binding measurements. The sensor chip was prepared using the anti-muFc capture kit (BR-1008-38) following instructions supplied by the manufacturer. Mutant or wild-type CRIg was diluted in running buffer (10 mM HEPES pH 7.4, 150 mM NaCl, 0.01% Tween-20) to 1 μg/mL and injections of 60 μL were made such that ˜100 RU of fusion protein were captured on one spot of the chip surface. Sensorgrams were recorded for 10 min injections of solutions of varied C3b concentration over the CRIg spot with subtraction of signal for a reference spot containing the capture antibody but no CRIg. Data were obtained for a 2-fold dilution series of C3b ranging in concentration from 4 μM to 15.6 nM with the flow rate at 10 μL/min and at a temperature of 25° C. The surface was regenerated between binding cycles by a 30 second injection of 10 mM Gly-HCl pH 1.7. Plateau values obtained at the end of each C3b injection were used to calculate KD using the Affinity algorithm of the Biacore A100 Evaluation Software v1.1 (Safsten et al. (2006) Anal. Biochem. 353:181).
# C3b [2] = molecular target: T1, C3b; assay: SPR (Biacore)
# T1 sequence (P01024 23-667 limits assumed, chain 1 of 2): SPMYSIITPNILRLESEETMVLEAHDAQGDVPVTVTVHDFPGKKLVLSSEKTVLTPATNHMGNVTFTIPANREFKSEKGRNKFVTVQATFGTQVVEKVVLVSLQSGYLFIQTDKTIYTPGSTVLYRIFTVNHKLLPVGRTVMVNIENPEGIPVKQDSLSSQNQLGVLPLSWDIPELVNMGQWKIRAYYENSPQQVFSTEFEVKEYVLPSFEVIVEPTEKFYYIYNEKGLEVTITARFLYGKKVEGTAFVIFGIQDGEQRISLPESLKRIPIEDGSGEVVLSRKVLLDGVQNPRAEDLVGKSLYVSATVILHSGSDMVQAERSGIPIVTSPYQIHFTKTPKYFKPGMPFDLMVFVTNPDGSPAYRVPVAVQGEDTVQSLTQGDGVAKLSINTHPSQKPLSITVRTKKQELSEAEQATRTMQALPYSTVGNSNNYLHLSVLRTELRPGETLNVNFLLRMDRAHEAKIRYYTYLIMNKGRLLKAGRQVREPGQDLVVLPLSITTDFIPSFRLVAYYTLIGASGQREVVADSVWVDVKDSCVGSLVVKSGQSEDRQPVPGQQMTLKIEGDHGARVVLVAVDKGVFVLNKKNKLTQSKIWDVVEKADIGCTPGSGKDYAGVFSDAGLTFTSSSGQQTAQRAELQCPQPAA
# T1 sequence (P01024 749-1663 limits assumed, chain 2 of 2): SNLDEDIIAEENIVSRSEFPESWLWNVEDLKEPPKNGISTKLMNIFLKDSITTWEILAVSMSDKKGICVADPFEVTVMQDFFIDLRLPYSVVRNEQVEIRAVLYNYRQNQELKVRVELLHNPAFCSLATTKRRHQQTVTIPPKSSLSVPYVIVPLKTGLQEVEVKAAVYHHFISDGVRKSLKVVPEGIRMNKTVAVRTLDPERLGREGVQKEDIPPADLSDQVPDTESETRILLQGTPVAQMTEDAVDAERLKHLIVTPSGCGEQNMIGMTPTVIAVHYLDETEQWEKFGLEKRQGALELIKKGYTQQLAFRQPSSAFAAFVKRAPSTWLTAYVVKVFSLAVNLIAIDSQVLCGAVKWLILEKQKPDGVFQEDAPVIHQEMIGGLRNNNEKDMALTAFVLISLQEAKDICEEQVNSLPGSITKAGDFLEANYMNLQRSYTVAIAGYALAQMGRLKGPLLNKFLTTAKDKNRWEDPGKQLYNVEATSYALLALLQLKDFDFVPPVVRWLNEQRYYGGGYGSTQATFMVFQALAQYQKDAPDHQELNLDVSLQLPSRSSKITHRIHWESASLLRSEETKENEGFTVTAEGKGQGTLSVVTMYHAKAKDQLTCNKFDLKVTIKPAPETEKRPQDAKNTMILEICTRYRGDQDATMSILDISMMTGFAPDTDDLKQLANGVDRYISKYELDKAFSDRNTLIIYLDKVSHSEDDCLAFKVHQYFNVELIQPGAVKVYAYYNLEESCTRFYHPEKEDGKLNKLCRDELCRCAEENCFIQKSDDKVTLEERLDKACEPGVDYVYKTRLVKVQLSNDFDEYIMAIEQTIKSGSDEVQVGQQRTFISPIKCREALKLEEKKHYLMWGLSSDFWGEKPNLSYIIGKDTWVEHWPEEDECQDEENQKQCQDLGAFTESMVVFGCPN
# Procedure: as §1
# C3b [3] = molecular target: T1, C3b; assay: cell-based or functional assay
Binder,Kd (C3b [1]) [nM],fold improvement of affinity over wildtype CRIg (C3b [2]) [fold],IC50 in a LPS-based assay selective for the alternative pathway of complement (C3b [3]) [fold],IC50 in an erythrocyte-based hemolytic assay selective for the alternative pathway of complement (C3b [3]) [fold]
B1,1100,,,
B2,200,5,,
B3,,,180,4
